# Laboratory results published in PubChem BioAssay AID1347417 (National Center for Advancing Translational Sciences (NCATS), 2020).
# Out of some 120,000 compounds screened, about 5,300 (4.4%) were called active. This list was built around the results that the source calls inconclusive (neither active nor inactive); the mix of calls is not that of the screen. Calls come from the whole dose curve; as a rule, active = well fitted inhibition curve with a large enough effect; inconclusive = small, poorly fitted or top-dose-only effect; inactive = no such curve, though single readings can be large or run the other way. Potencies beside an inconclusive call are fits to weak or partial responses and may not hold up.
# Test: qHTS Primary assay for Inhibitors of Plasmodium falciparum Dd2 growth in vitro; note: nearly all actives have a fitted effect of over 65% in size;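 for activity, negative = inhibition: plate controls were DMSO vehicle for no effect and reference drug for full effect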
# Details: P. falciparum Dd2 growth, SYBR Green, 72 h; activity, negative = inhibition: at 28.9 µM (top of the series) unless noted; series mostly up to 28.9 µM
# In short: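 Readout: SYBR Green fluorescence, 485 nm excitation, 535 nm emission, after ~16 h lysis at 37C. Before that, Dd2-infected red cells (2.5% hematocrit) grew 72 h with compound, 29 uM top final concentration.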
# Potency is the fitted concentration of half-maximal effect; tags give direction and shape of the fitted curve.
Structure (SMILES),Potency,"activity, negative = inhibition"
O=C(NCc1ccc2c(c1)OCO2)c1nc(-c2ccc(F)cc2)c2ccccn12,"inconclusive: 17.8 µM [inhibitor, single point]",
COCc1ccc2c(c1)c(OC(C)(C)C(=O)NCCCN1CCCC1=O)nn2Cc1cccnc1,inactive,
CCN1C(=O)c2ccccc2S(=O)c2ccc(C(=O)N3CCN(c4cccc(C)c4)C(C)C3)cc21 (stereo unspecified),"inconclusive: 1.26 µM [inhibitor, single point]",
COc1cc(OC)c(C2Nc3c(C)cccc3-c3cc(C)nn32)cc1OC (stereo unspecified),"inconclusive: 1.41 µM [inhibitor, single point]",
CCCNc1cc(N2CCC(CCC(=O)Nc3ccc(C)cc3)CC2)ncn1,active: 12.6 µM,
Cn1ccnc1-c1ccc(N2CCCC(CO)(CCOc3ccccc3)C2)nn1 (stereo unspecified),"inconclusive: 4.47 µM [inhibitor, partial curve, poor fit]",
CCCn1c(C)cnc1CCNS(=O)(=O)CCC,inactive,
Cc1ccc(C)c(-c2[nH]ncc2CN2CCCC(O)(CN(C)C)C2)c1 (stereo unspecified),"inconclusive: 8.91 µM [inhibitor, single point]",
CC(C)NC(=O)c1nc(-c2ccc(Cl)nc2)c2ccccn12,"inconclusive: 10 µM [inhibitor, single point]",
CN1c2cc(C(=O)NC3CCCCCC3)ccc2C(=O)N2CCCCCC21 (stereo unspecified),"inconclusive: 20 µM [inhibitor, partial curve, poor fit]",
O=C(NC[C@H]1C[C@@H]2CCN1C[C@@H]2CN1CCCC1)c1ccccc1,"inconclusive: 8.91 µM [inhibitor, partial curve, poor fit]",
Cc1ccc(N2C(=O)CCSC23C(=O)N(Cc2ccccc2)c2ccccc23)cc1F (stereo unspecified),"inconclusive: 10 µM [inhibitor, single point]",
O=S1(=O)NC2(CCN(Cc3c[nH]c4ccccc34)C2)COc2ccncc21 (stereo unspecified),,inconclusive: -41.9% [inhibitor]
Cc1cccc(CN(C)CC2CCCN(CCc3cccc(C(F)(F)F)c3)C2)n1 (stereo unspecified),"inconclusive: 2.24 µM [inhibitor, single point]",
Cc1ccccc1CN1C(=O)c2ccccc2Sc2ccc(C(=O)NC(C)c3ccccc3)cc21 (stereo unspecified),"inconclusive: 12.6 µM [inhibitor, single point]",
O=C(NC1CCOCC1)c1ccc(OC2CCN(Cc3ccccn3)CC2)cc1,inactive,
CC1Oc2ccc(NS(=O)(=O)c3cccc(Cl)c3)cc2CN(Cc2ccccc2Cl)C1=O (stereo unspecified),"inconclusive: 0.794 µM [inhibitor, partial curve, poor fit]",
Cc1ccc(-c2nnc(C3CCN(S(=O)(=O)c4ccc(C)c(C)c4)CC3)o2)cc1,"inconclusive: 10 µM [inhibitor, single point]",
CCOc1ccccc1NC(=O)CN1C(=O)CC(c2ccc(OC)c(OC)c2)Sc2ccccc21 (stereo unspecified),"inconclusive: 8.91 µM [inhibitor, partial curve, poor fit]",
COc1ccc(-n2nc(C)c([C@@H]3C=C[C@@H](NCc4ccc(F)cc4)C3)c2C)cc1,"inconclusive: 0.562 µM [inhibitor, full curve]",
O=C(Cc1cccc(F)c1)N1CCC2(CC1)CC(N(Cc1ccccc1)C1CC1)CCO2 (stereo unspecified),"inconclusive: 3.98 µM [inhibitor, single point]",

Structure (SMILES),Potency,"activity, negative = inhibition"
O=C(c1nc(-c2ccc(Cl)cc2Cl)c2cnccn12)N1CCN(c2ncccn2)CC1,"inconclusive: 11.2 µM [inhibitor, partial curve, poor fit]",
COc1ccc(Cl)cc1NC(=O)CCC1CCCN(c2nc(C)cc(C)n2)C1 (stereo unspecified),"inconclusive: 10 µM [inhibitor, single point]",
COc1ccc(F)c(-c2nc(Cn3cnc4ccccc43)c(C)o2)c1,"inconclusive: 8.91 µM [inhibitor, partial curve]",
Cc1ccc(C)c(CN2CCC3(CC2)[C@H](O)C[C@@H]3OCCN)c1,inactive,
Cc1ccc(-c2ccc3nnc(CNC(=O)c4ccc(F)c(F)c4)n3n2)cc1C,inactive,
CCCc1nc(C(=O)NC2CC(c3cc(N4CCOCC4)ncn3)C2)cs1 (stereo unspecified),"inconclusive: 14.1 µM [inhibitor, partial curve, poor fit]",
Cc1ccc(NC(=O)Cn2c(=O)n(CCCCC(=O)NCc3ccccc3Cl)c(=O)c3ccccc32)cc1C,"inconclusive: 12.6 µM [inhibitor, partial curve, poor fit]",
COCCN1C(=O)[C@@H]2C[C@@H](CN2Cc2ccccc2Cl)Oc2ccccc21,"inconclusive: 12.6 µM [inhibitor, partial curve, poor fit]",
O=C(NC1CCCCCC1)c1ccc(Cn2ccn3nc4c(c3c2=O)CCCC4)cc1,"inconclusive: 10 µM [inhibitor, single point]",
CC(O)c1cc2n(n1)CCN(C(=O)CCc1nc3ccc(F)cc3[nH]1)C2 (stereo unspecified),"inconclusive: 17.8 µM [inhibitor, single point]",
COc1ccc(S(=O)(=O)N[C@H]2[C@H](O)[C@H](O)C[C@@H]2c2ccc(C(F)(F)F)cc2)cc1,"inconclusive: 12.6 µM [inhibitor, partial curve]",
COc1cc(Nc2ncc3c(n2)CCN(Cc2cc(Br)cs2)C3)cc(OC)c1,"inconclusive: 17.8 µM [inhibitor, single point]",
Cc1cc(Nc2ccc(F)cc2)n2c(nc3ccccc32)c1C#N,"inconclusive: 7.94 µM [inhibitor, partial curve]",
CCN(CC)CCSc1nc2ccccc2c(=O)n1-c1ccc(Cl)cc1,active: 7.94 µM,
CC(=O)N1CCCc2cc(S(=O)(=O)N3CCC(C(=O)NCc4ccc(N(C)C)cc4)CC3)ccc21,"inconclusive: 17.8 µM [inhibitor, single point]",
C1CCC(COCCc2noc(C3CCCNC3)n2)C1 (stereo unspecified),"inconclusive: 12.6 µM [inhibitor, single point]",
Cc1ccc(-c2nnc(C3CN(C(=O)Cc4ccc(F)cc4)CC34CCOCC4)o2)cc1 (stereo unspecified),inactive,
COC(=O)[C@@H]1Cc2c([nH]c3ccccc23)[C@H]2C[C@H](NCCNC(C)=O)C[C@@H](c3ccc(C)cc3)N21,"inconclusive: 10 µM [inhibitor, single point]",
CCOc1cccc(CC(=O)Nc2ccc3nc(N4CCCCC4)cc(C)c3c2)c1OCC,"inconclusive: 2 µM [inhibitor, full curve]",
CCCCN(C)C(=O)C1CCCN(c2ncnc3onc(-c4ccc(F)cc4)c23)C1 (stereo unspecified),"inconclusive: 12.6 µM [inhibitor, partial curve]",
CCN(CC)S(=O)(=O)c1ccc2c(c1)c(=O)c(C(=O)NCc1ccccc1)cn2C,"inconclusive: 12.6 µM [inhibitor, single point]",

Structure (SMILES),Potency,"activity, negative = inhibition"
COc1ccccc1CNC(=O)C[C@@H]1[C@H](O)CCC2[C@](C)(CO)[C@H](OC(=O)NC(C)C)CC[C@]21C (stereo partly specified),"inconclusive: 8.91 µM [inhibitor, partial curve, poor fit]",
O=C1CC2(CCN(Cc3ccccn3)C2)Nc2ccccc2N1 (stereo unspecified),inactive,
c1cnc2nc([C@H]3CCN(C4CCCCC4)C3)[nH]c2c1,"inconclusive: 3.55 µM [inhibitor, partial curve]",
O=C1CC(c2ccccc2)N(C(=O)CNC(=O)C2CCC2)CCCCCCN1 (stereo unspecified),inactive,
Cc1ccc(CNC(=O)Cc2coc3cc(C)cc(C)c23)cc1,,inconclusive: -59% [inhibitor] [at 5.79 µM]
O=C1NCCOCCCN(S(=O)(=O)c2cccc3cccnc23)[C@H]2CCCC[C@@H]12,"inconclusive: 11.2 µM [inhibitor, single point]",
N#Cc1ccc(CN2C(=O)c3ccccc3Sc3ccc(C(=O)OCc4ccco4)cc32)cc1,"inconclusive: 17.8 µM [inhibitor, single point]",
CCOC(=O)c1ccc(NC(=O)C2CCCN(c3ccc(Sc4ccc(C)cc4)nn3)C2)cc1 (stereo unspecified),active: 5.62 µM,
COc1ccc(-c2noc(Nc3ccccc3)n2)cc1,"inconclusive: 12.6 µM [inhibitor, partial curve, poor fit]",
CC(=O)N1CCC([C@@H]2CN(C(=O)CCCc3ccccc3)C[C@H]2CO)CC1,inactive,
CC(C)c1nc2ccc(C(=O)NCCCN3CCN(c4ccccc4F)CC3)cc2o1,"inconclusive: 11.2 µM [inhibitor, partial curve, poor fit]",
O=S(=O)(c1ccc(Cl)cc1)c1nnn2c1nc(N1CCOCC1)c1ccccc12,"inconclusive: 10 µM [inhibitor, partial curve, poor fit]",
COCCN1C(=O)C(CC(N)=O)=C2CCCCC21 (stereo unspecified),inactive,
CC(C)CCN1CCC(N2CCN(C(=O)CCCc3ccccc3)CC2)C1=O (stereo unspecified),"inconclusive: 17.8 µM [inhibitor, single point]",
Cc1ccc(C)c(Cn2c(=O)n(CCCCC(=O)NCc3ccccc3Cl)c(=O)c3ccccc32)c1,"inconclusive: 1.58 µM [inhibitor, partial curve, poor fit]",
CC(C)c1ccc(CN2C[C@@H]3C(=O)N(CCc4ccccc4)C(=O)[C@@H]3C2)cc1,"inconclusive: 7.94 µM [inhibitor, single point]",
CCNC(=O)c1ccc2c(c1)C1(CCCN(C)C1)CN2C (stereo unspecified),inactive,
O=C(c1ccccc1-c1ncn[nH]1)N1CCn2nc(Cc3ccccc3)cc2C1,"inconclusive: 3.16 µM [inhibitor, single point]",
CN1c2cc(C(=O)Nc3cccc(C(F)(F)F)c3)ccc2C(=O)N2CCCCC21 (stereo unspecified),"inconclusive: 3.16 µM [inhibitor, single point]",
